Test results reported in the supplement of paper PMC3334620.
The full ranking holds about 33,000 sequences; the median of “E-score (-0.5 to 0.5)” is about -0.012, and the highest 2% start at about 0.27. Some of the results follow.

Biological target: T1, Vhr1 (UniProt P40522)
T1 sequence: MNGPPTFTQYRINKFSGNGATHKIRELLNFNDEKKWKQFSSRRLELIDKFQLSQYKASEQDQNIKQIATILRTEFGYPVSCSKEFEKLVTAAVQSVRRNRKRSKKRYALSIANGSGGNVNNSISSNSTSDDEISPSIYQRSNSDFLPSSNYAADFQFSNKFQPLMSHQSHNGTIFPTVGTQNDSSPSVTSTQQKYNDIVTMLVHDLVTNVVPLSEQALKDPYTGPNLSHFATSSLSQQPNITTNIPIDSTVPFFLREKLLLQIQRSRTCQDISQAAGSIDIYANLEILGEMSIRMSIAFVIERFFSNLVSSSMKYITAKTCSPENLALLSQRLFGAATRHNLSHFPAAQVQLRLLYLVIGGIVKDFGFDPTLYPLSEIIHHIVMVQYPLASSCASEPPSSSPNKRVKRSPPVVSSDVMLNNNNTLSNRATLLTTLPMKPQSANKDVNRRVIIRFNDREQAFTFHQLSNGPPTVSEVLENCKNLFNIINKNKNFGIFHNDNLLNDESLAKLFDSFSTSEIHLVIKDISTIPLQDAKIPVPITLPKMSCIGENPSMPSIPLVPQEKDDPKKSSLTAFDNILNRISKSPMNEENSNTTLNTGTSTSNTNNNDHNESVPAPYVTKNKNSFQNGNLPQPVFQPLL
Test: PBM E-score (8-mer binding enrichment) (E-score (-0.5 to 0.5)); higher = stronger / more preferred TF binding; most listed sequences are background and not binding sites
Conditions: protein concentration: 200 nM; construct: GST-full length
Description: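 Universal 'all 10-mer' protein binding microarrays (Agilent AMADID 015681) probed with GST-tagged S. cerevisiae TFs (full-length or DBD) made by in vitro transcription/translation (PURExpress), about 100-200 nM. Bound TF was detected with fluorescent anti-GST. Each ungapped 8-mer (which stands for itself and its reverse complement) is scored by the PBM enrichment score (E-score), a modified Wilcoxon-Mann-Whitney statistic from -0.5 to +0.5, computed with the Universal PBM Analysis Suite. Scale: above 0.35 generally sequence-specific binding.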

Sequence	PBM E-score
CCTTTCAG	-0.245
GGAGCGCA	-0.344
CAAGTTAC	-0.0596
CCTTATGA	0.125
CGAGGAAG	-0.0342
AGTGCGTA	0.0484
GAAGGATC	-0.0379
ACCACGTA	-0.0666
CGTGAGCA	-0.105
CAATACCG	0.092
ACTTCTCA	-0.102
GACAGTGC	0.0443
CGCTTCCA	-0.134
GTTTGGAA	-0.19
ATTTTACC	-0.0453
GGACAGAC	0.0477
CGCGACAC	0.224
ATAGGCGG	0.00193
AACTATAT	0.0791
AGTAGCTG	-0.0149
CGTGCTAG	-0.171
GAGGCGTA	0.0417
CGTGTCAA	-0.145
CAGTCCCG	-0.0554
GCGATTAA	0.184

Sequence	PBM E-score
TCAGACCA	0.203
GAACTAAA	-0.115
AGCTTGAA	-0.222
ATCATCTG	0.151
AAGATTTC	-0.0651
ACCATTTG	0.0774
CTTTGCGC	-0.0168
CATTTCGC	0.0604
ATCAAGCG	-0.109
AAAATGAA	-0.11
CGACGGAC	-0.00384
GATGTGTA	0.2
CCATTGGA	-0.0822
GTTACTCA	0.224
CTTGCGCA	0.142
CCGACGGC	-0.105
CGTGATGC	0.162
CGGGATGC	-0.114
GCGCATTA	-0.035
AGATCTTA	-0.0915
AAATGCGG	0.0968
CACCACCA	0.146
CCTTAACG	-0.103
ACATGCGT	0.0853
ACAATGTG	0.0847

Sequence	PBM E-score
GTTTGAAA	-0.0935
CGCTTACC	-0.196
GCCACATA	0.03
GTATTCCA	-0.0157
CGAAGTGC	-0.107
CCTAGGCG	-0.213
TTACTAAA	-0.0751
GGGGGCCA	-0.128
ATTACTAA	0.0221
ACCCATTC	0.199
ATACTATG	0.216
ACATGCTG	0.185
ATAATGGA	0.00279
ACACAACC	0.168
GTCAGAAA	-0.0784
CATGATTC	0.424
GGCAAGTA	0.0953
AATAAAAC	-0.254
CGTGCAGC	0.0437
CTACACAC	0.186
AATAAGCG	-0.114
CCCGTAGC	-0.244
CAACGTTA	-0.0425
GACGGGGC	0.0761
AATTCACA	-0.00719

Sequence	PBM E-score
ATTACCGC	-0.0553
GTCACTAA	0.166
AGGCGCGA	0.0505
GCTTCCCC	-0.101
ATCAACCC	0.205
TCAAGGGA	-0.0372
AGCTCCAA	0.162
CCTGGCAA	-0.189
GGCCTCGA	-0.206
CAAAAAGA	-0.162
CGTTAGGC	-0.116
ACCCAGAG	0.21
CTACGACA	0.0458
CCCGCCAG	0.088
CTCGGAGC	-0.0114
AACCTACT	0.118
CATTTCCG	0.0829
AAGGGTGC	-0.0494
TAGTCTCA	-0.0317
ACCCCACA	0.169
AACATATA	0.125
AGGGCTGG	-0.0983
CTAAGTTC	-0.326
GACCCGTC	0.0316
CGGGGGGA	-0.0994

Sequence	PBM E-score
CATTTGGA	-0.0584
AGAGTTCA	-0.241
CACCGACC	0.0948
CAAGCAAG	-0.0582
AATGTTAA	-0.0066
AGACCGCA	-0.0598
ACTGCGAT	0.131
GGAGATCC	-0.0359
AATGTCTA	-0.134
TTGCAAAA	-0.213
CTGTAGCC	0.0591
AAGCTTCC	-0.37
GGGCAGGA	0.134
ATTATGTC	-0.133
GCTCACCA	0.0889
TGTAGCAA	0.0111
AATTACCA	0.0265
CGCTTACA	-0.0577
GCCCATAA	0.0726
CTAACCTA	-0.0357
GAATCGAC	-0.005
GAGACTGA	0.0631
GGGACGTA	-0.103
AAAAGTGT	-0.22
GCTCCCCA	-0.281

Sequence	PBM E-score
CTTGGGCA	-0.111
ACCCTGCA	0.0323
CAACATGG	0.0395
ATGGCACG	-0.058
AACGATTA	-0.0484
ATCGGCGA	-0.0993
ATACGTAT	0.233
ATAGATTC	-0.00919
ACCGCCGT	0.0915
GCGTAGCA	-0.03
TAACCCTA	0.0573
CTAAGTAG	0.0365
AGTACCGG	-0.0717
AGAATACC	0.161
GACCGGGC	-0.166
CGAGACTC	0.309
GAGGTCGC	0.00623
TAGTTTAA	-0.102
CATGCATG	0.117
AGTGGCCA	-0.0267
AACTCATT	-0.176
AACGATAC	-0.0471
GCATCGCA	0.00441
AATTAGAT	-0.00863
GCCGAAAC	-0.0437

Sequence	PBM E-score
GATAGTCC	0.0259
CCACTCCG	0.182
GTATTGGA	-0.184
GATTGAGA	0.17
AAGGTTGG	-0.145
CTTAGTCA	0.376
AAGCTACG	-0.183
ACCGGATC	0.0913
ATATTCAA	0.0595
GGACAAGA	-0.142
CCTAAGAA	-0.159
GTCCCCCA	-0.168
GCAATGCC	-0.0222
CCACGTAA	0.0412
ACTGACAT	0.0699
CCTCTAAC	-0.236
GGCTAAAA	-0.269
AGACGAGA	-0.152
ATAGATCC	0.00556
ATTTTACG	-0.0604
CGAATGAG	0.0895
CAGTAATC	0.112
